{
  "source": "paper PMC4613828",
  "about": "(PLoS Pathogens, 2015)",
  "method": "The crystal structure of CVA16 in complex with the uncoating inhibitor GPP3 was determined by crystallography (Materials and Methods, Fig 2 and Table 1). […] Diffraction data were collected from 15 crystals at room temperature in crystallization plates at the Diamond Light Source[9]. Data were scaled together, merged and the structure solved at 2.75 Å resolution by molecular replacement using the structure of the mature CVA16 virus. […] The surface area accessible to solvent, calculated by Areaimol[11], is 12.3 Å^2 for GPP3 in the VP1 pocket whereas for the sphingosine it is 11.8 Å^2. […] As expected, GPP3 binds with its pyridine ring close to the entrance of the pocket, with the carbonyl oxygen of the imidazole moiety hydrogen-bonding to the backbone nitrogen of residue Ile113, which is also the case for sphingosine, and with the phenoxy ring sandwiched between two hydrophobic residues (Phe135 and Tyr155) (Fig 2). This binding mode was also observed for EV71 in complex with the same compound[8], except that EV71 has a phenylalanine at position 155. The RMSD between EV71 crystal structure and CVA16 structure is 0.5Å for all aligned residues. Their sequence identity is ~80% in the capsid proteins.",
  "data": [
    {"smiles": "CCON=Cc1ccc(OCCC(C)CCN2CCN(c3ccncc3)C2=O)cc1", "note": "(stereo not shown) [GPP3]", "values": [
      {"measurement": "solubility in water", "value": "rather insoluble in water"}
    ]}
  ]
}
